Results as given in the supplement of paper PMC12217912.
This is one part of the list. Sequences were assembled here from the parent chain. Values near 0.05 are background.

B1: TEV protease; numbered along this chain (parent)
chain: MGESLFKGPRDYNPISSSICHLTNESDGHTTSLYGIGFGPFIITNKHLFRRNNGTLVVQSLHGVFKVKDTTTLQQHLVDGRDMIIIRMPKDFPPFPQKLKFREPQREERICLVTTNFQTKSMSSMVSDTSCTFPSGDGIFWKHWIQTKDGQCGSPLVSTRDGFIVGIHSASNFTNTNNYFTSVPKNFMELLTNQEAQQWVSGWRLNADSVLWGGHKVFMVKPEEPFQPVKEATQL

Variants of: B1
Assay: raw area under fraction-flipped curve 0-4 h after induction (AUC4h, not background-subtracted), DNA-recorder readout of cleavage of the substrate (dimensionless); higher = more cleavage of the substrate by the protease variant
Details: temperature: 34 °C; time window: 0-4 h after rhamnose induction
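Further: Bxb1 expression induced with 0.2% (w/v) L-rhamnose at OD600 near 0.5, cultures sampled hourly, flipped fraction per protease–substrate barcode pair counted by paired-end Illumina sequencing.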

| Variant | area with substrate ENDYFQS | area with substrate ENFYFQS | area with substrate ENNYFQS | area with substrate ENPYFQS | area with substrate ENSYFQS | area with substrate ENWYFQS | area with substrate ENYYFQS | area with substrate ENEYFQS | area with substrate ENHYFQS | area with substrate ENIYFQS | area with substrate ENMYFQS | area with substrate ENRYFQS | area with substrate ENTYFQS | area with substrate ENCYFQS | area with substrate ENGYFQS | area with substrate ENQYFQS | area with substrate ENVYFQS | area with substrate ENKYFQS |
| --- | --- | --- | --- | --- | --- | --- | --- | --- | --- | --- | --- | --- | --- | --- | --- | --- | --- | --- |
| V200E | 0.0652 | 0.0824 | 0.0471 | 0.0487 | 0.0591 | 0 | 0.0552 |  |  |  |  |  |  |  |  |  |  |  |
| I42D | 0.0492 | 0.0446 |  |  | 0.0386 | 0.0324 | 0.0891 | 0.0561 | 0.0283 | 0.0469 | 0.0242 | 0.0413 | 0.0622 |  |  |  |  |  |
| P228N | 0.0598 | 0.065 | 0.0615 |  | 0.0778 | 0.0791 | 0.0664 | 0.0573 | 0.0576 | 0.109 |  | 0.0583 |  | 0.0683 | 0.0602 | 0.0516 | 0.0848 |  |
| E223F | 0.0878 | 0.0658 | 0.0581 |  | 0.0625 |  | 0.0554 | 0.0534 |  | 0.0814 | 0.0709 |  | 0.0494 | 0.0641 |  | 0.065 | 0.079 | 0.0521 |
| G136P | 0.0801 |  | 0.0431 |  | 0.0525 |  |  | 0.0613 | 0.0716 |  |  |  |  | 0.0637 | 0.0619 |  | 0.0609 |  |
| Q194S | 0.045 | 0.0701 | 0.0563 |  | 0.038 |  | 0.0764 | 0.0495 | 0.0596 | 0.107 |  |  | 0.0654 | 0.0854 |  | 0.057 | 0.0907 | 0.0518 |
| Q59V | 0.061 |  | 0.0738 | 0.0584 |  | 0.0574 |  | 0.067 |  |  | 0.0671 | 0.0636 | 0.0648 |  | 0.0563 | 0.0539 |  |  |
| N52I |  | 0.0818 |  |  |  |  |  |  |  | 0.0616 | 0.0601 |  | 0.0603 |  |  |  | 0.0577 | 0.0879 |
| T132F | 0.0576 | 0.0602 | 0.0399 |  | 0.0521 |  |  | 0.0573 | 0.12 | 0.0526 | 0.0571 | 0.051 | 0.0567 |  | 0.0602 |  | 0.0606 | 0.0522 |
| Q151H | 0.0583 | 0.0575 | 0.0642 |  |  | 0.0626 | 0.0564 | 0.0419 |  |  |  |  | 0.0353 | 0.0688 | 0.0665 | 0.0654 | 0.0633 | 0.0604 |
| Q198V |  |  | 0.0545 |  | 0.0595 | 0.0512 | 0.0605 | 0.0486 |  |  | 0.0713 | 0.0631 | 0.0618 |  | 0.0675 | 0.0519 | 0.0679 |  |
| W203R | 0.0908 | 0.0667 | 0.0712 | 0.0657 | 0.0632 |  |  | 0.0609 |  |  |  | 0.0303 | 0.0582 |  |  |  |  |  |
| Q146N |  | 0.0746 | 0.0714 | 0.0488 | 0.0629 |  |  | 0.0688 | 0.0769 |  |  | 0.0597 | 0.0682 | 0.08 | 0.0682 |  | 0.0865 | 0.0553 |
| V57Y | 0.0619 |  | 0.0703 | 0.0663 | 0.101 | 0.0426 | 0.0435 | 0.0539 | 0.0699 | 0.124 | 0.101 | 0.0581 | 0.0714 |  | 0.0579 |  | 0.0793 | 0.0435 |
| P225T | 0.0596 |  | 0.0593 | 0.0624 | 0.0578 |  | 0.0626 | 0.0694 | 0.0513 |  | 0.0877 |  | 0.0489 | 0.0767 |  | 0.0708 | 0.0767 |  |
| F218S | 0.0717 |  | 0.0652 |  |  |  |  |  | 0.0522 | 0.0977 |  | 0.0484 |  | 0.0828 | 0.0455 | 0.0648 | 0.0318 |  |
| F218G |  | 0.0584 |  |  |  |  | 0.0647 | 0.0553 | 0.0504 |  |  |  | 0.0539 | 0.0777 |  |  |  |  |
| M122K |  | 0.0657 | 0.0648 |  | 0.0591 |  | 0.0771 | 0.0561 |  | 0.07 |  |  | 0.0909 |  | 0.0631 | 0.0605 | 0.064 |  |
| F65R | 0.0591 |  | 0.0551 |  | 0.0608 | 0.057 | 0.0573 | 0.061 | 0.0674 | 0.0922 |  | 0.048 | 0.071 |  | 0.0561 | 0.0545 | 0.072 |  |
| K120L | 0.0576 |  | 0.05 |  | 0.0638 |  |  |  |  |  |  | 0.0335 |  |  |  | 0.0473 | 0.0652 |  |
| W144L | 0.0757 |  | 0.0717 |  |  | 0.0476 |  | 0.069 | 0.066 |  |  |  | 0.0685 | 0.0659 |  | 0.0617 | 0.0674 |  |
| W144T |  | 0.0694 |  |  | 0.057 |  |  |  | 0.0461 | 0.107 | 0.0756 |  |  |  |  | 0.0625 | 0.0804 |  |
| I139Q | 0.0557 | 0.0679 | 0.066 | 0.0623 | 0.0974 |  | 0.0456 | 0.0569 |  |  |  | 0.0517 |  | 0.0527 | 0.0627 | 0.0766 | 0.0624 | 0.0038 |
| G213S | 0.0632 |  |  |  |  |  | 0.054 |  | 0.054 | 0.0879 |  | 0.0623 | 0.0671 | 0.0792 |  | 0.0333 | 0.0596 |  |
| E108P | 0.0608 | 0.0408 |  | 0.0649 | 0.0585 |  |  |  |  | 0.0579 | 0.0669 |  | 0.0477 |  |  | 0.0533 |  | 0.0664 |
| K185P | 0.0797 | 0.0679 |  | 0.0643 | 0.0616 |  |  | 0.0641 |  |  | 0.0954 |  | 0.0817 |  |  | 0.06 | 0.0807 |  |
| D11R | 0.0633 | 0.0592 | 0.0642 |  | 0.0529 |  | 0.0504 | 0.0699 | 0.0514 | 0.135 |  |  | 0.0798 |  | 0.0547 | 0.0514 | 0.07 | 0.078 |
| I19T | 0.0636 |  | 0.0548 | 0.0531 |  |  |  | 0.0533 | 0.0972 |  | 0.0863 |  | 0.06 |  | 0.0708 | 0.0572 | 0.0736 |  |
| P222G | 0.07 | 0.0401 | 0.0814 |  | 0.0623 | 0.0708 | 0.0634 | 0.0827 | 0.0555 | 0.112 |  | 0.0692 |  | 0.071 | 0.043 | 0.0469 | 0.0689 | 0.0595 |
